The full ranking holds about 4,100 sequences; the median of “relative CpG methylation activity (normalised to average over all NNNCGNNN flanks)” is about 0.94, and the highest 2% start at about 1.9. The list shows a part of the results.
molecular target: DNMT3B catalytic domain (mouse) (UniProt O88509); test: relative CpG methylation activity (normalised to average over all NNNCGNNN flanks) (relative (1 = mean)); higher = more methylation of the central CpG; conditions: system: in vitro, murine catalytic domain; CpG state: hemimethylated substrate pool; residues: 558-859
Sequence of UniProt O88509 (O88509 558-859): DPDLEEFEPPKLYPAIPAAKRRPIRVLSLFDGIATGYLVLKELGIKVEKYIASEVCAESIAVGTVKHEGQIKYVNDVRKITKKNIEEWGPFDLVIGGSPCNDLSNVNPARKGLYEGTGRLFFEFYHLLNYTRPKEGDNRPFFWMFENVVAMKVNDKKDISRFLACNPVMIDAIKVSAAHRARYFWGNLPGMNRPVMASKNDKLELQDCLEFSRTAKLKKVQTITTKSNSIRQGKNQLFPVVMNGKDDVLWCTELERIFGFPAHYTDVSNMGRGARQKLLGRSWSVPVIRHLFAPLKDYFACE
Method: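 Deep enzymology: a pool of dsDNA substrates with a central CpG flanked by 10 random nucleotides on each side was methylated by the murine DNMT3A or DNMT3B catalytic domain (0.8 mM SAM, 37 °C, 60 min). Methylation was then read out by hairpin ligation, bisulfite conversion and NGS. Values are the average methylation of each NNNCGNNN context (±3 flanks; the outer flanks are random and averaged over), normalised to the overall mean, so 1 = average activity.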

Question: For ACGCGTCA, which “relative CpG methylation activity” value is on record?
Answer: 0.64

Question: With CCTCGGCT as the sequence, how does the “relative CpG methylation activity” value read?
Answer: 1.89

Question: Which “relative CpG methylation activity” value does the source give for CTGCGGGA here?
Answer: 1.38

Question: With ATTCGTGG as the sequence, how does the “relative CpG methylation activity” value read?
Answer: 0.142

Question: For GACCGTGT, which “relative CpG methylation activity” value is on record?
Answer: 0.146

Question: For AGTCGAGC, which “relative CpG methylation activity” value is on record?
Answer: 1.75

Question: How did the “relative CpG methylation activity” value turn out when GTGCGCGG was run?
Answer: 0.595

Question: How did the “relative CpG methylation activity” value turn out when GCACGGGT was run?
Answer: 1.21

Question: For GGTCGGGT, which “relative CpG methylation activity” value is on record?
Answer: 1.56

Question: For ACGCGCTT, which “relative CpG methylation activity” value is on record?
Answer: 0.705

Question: With CACCGTAT as the sequence, how does the “relative CpG methylation activity” value read?
Answer: 0.274

Question: Which “relative CpG methylation activity” value does the source give for AAACGAAC here?
Answer: 1.64

Question: Which “relative CpG methylation activity” value does the source give for TACCGGGT here?
Answer: 0.804

Question: With CGTCGGCT as the sequence, how does the “relative CpG methylation activity” value read?
Answer: 1.46

Question: For TTGCGGTA, which “relative CpG methylation activity” value is on record?
Answer: 1.17

Question: For GGTCGGGA, which “relative CpG methylation activity” value is on record?
Answer: 0.713

Question: With TCTCGGGG as the sequence, how does the “relative CpG methylation activity” value read?
Answer: 1.35

Question: Which “relative CpG methylation activity” value does the source give for TATCGTAG here?
Answer: 0.359

Question: With AAGCGCTC as the sequence, how does the “relative CpG methylation activity” value read?
Answer: 0.641

Question: For CTTCGGCA, which “relative CpG methylation activity” value is on record?
Answer: 1.97

Question: For AAGCGTAA, which “relative CpG methylation activity” value is on record?
Answer: 0.489

Question: With GCACGCCG as the sequence, how does the “relative CpG methylation activity” value read?
Answer: 1.29

Question: TCCCGCGG was tested. Which “relative CpG methylation activity” value did it give?
Answer: 0.667

Question: With TTTCGCCT as the sequence, how does the “relative CpG methylation activity” value read?
Answer: 1.44

Question: How did the “relative CpG methylation activity” value turn out when ATTCGGTG was run?
Answer: 1.11

Question: TTCCGGAA was tested. Which “relative CpG methylation activity” value did it give?
Answer: 0.997

Question: For AACCGCCT, which “relative CpG methylation activity” value is on record?
Answer: 0.415

Question: Which “relative CpG methylation activity” value does the source give for GGTCGCGT here?
Answer: 0.3

Question: For AGCCGTGT, which “relative CpG methylation activity” value is on record?
Answer: 0.0963

Question: For AATCGCGG, which “relative CpG methylation activity” value is on record?
Answer: 0.474

Question: CCACGATT was tested. Which “relative CpG methylation activity” value did it give?
Answer: 1.65

Question: With AAACGAGG as the sequence, how does the “relative CpG methylation activity” value read?
Answer: 1.63

Question: For ACACGTGA, which “relative CpG methylation activity” value is on record?
Answer: 0.622

Question: For CAACGATG, which “relative CpG methylation activity” value is on record?
Answer: 1.43

Question: CATCGTCA was tested. Which “relative CpG methylation activity” value did it give?
Answer: 0.986

Question: For GAGCGTGG, which “relative CpG methylation activity” value is on record?
Answer: 0.328

Question: GGTCGTAC was tested. Which “relative CpG methylation activity” value did it give?
Answer: 0.657

Question: With GATCGTAA as the sequence, how does the “relative CpG methylation activity” value read?
Answer: 0.184

Question: How did the “relative CpG methylation activity” value turn out when CTCCGTGG was run?
Answer: 0.512

Question: For CTGCGGCT, which “relative CpG methylation activity” value is on record?
Answer: 1.47

Question: Which “relative CpG methylation activity” value does the source give for GTACGCTC here?
Answer: 1.53

Question: ATGCGTGG was tested. Which “relative CpG methylation activity” value did it give?
Answer: 0.444

Question: For ATCCGTGA, which “relative CpG methylation activity” value is on record?
Answer: 0.44

Question: With GTCCGCTC as the sequence, how does the “relative CpG methylation activity” value read?
Answer: 1.52

Question: Which “relative CpG methylation activity” value does the source give for GAGCGGCA here?
Answer: 1.26

Question: For TGCCGCTG, which “relative CpG methylation activity” value is on record?
Answer: 0.266

Question: Which “relative CpG methylation activity” value does the source give for GATCGCCG here?
Answer: 0.81

Question: How did the “relative CpG methylation activity” value turn out when GGTCGCCC was run?
Answer: 0.657

Question: CACCGAGC was tested. Which “relative CpG methylation activity” value did it give?
Answer: 1.56

Question: How did the “relative CpG methylation activity” value turn out when GTTCGATG was run?
Answer: 1.14

Question: With AGACGTGG as the sequence, how does the “relative CpG methylation activity” value read?
Answer: 0.566

Question: For CCACGCTG, which “relative CpG methylation activity” value is on record?
Answer: 0.969

Question: How did the “relative CpG methylation activity” value turn out when CCCCGTCT was run?
Answer: 1.06

Question: With ACGCGAAC as the sequence, how does the “relative CpG methylation activity” value read?
Answer: 1.22

Question: How did the “relative CpG methylation activity” value turn out when TGCCGCAA was run?
Answer: 0.238

Question: Which “relative CpG methylation activity” value does the source give for CCCCGACA here?
Answer: 1.52

Question: TGACGGCT was tested. Which “relative CpG methylation activity” value did it give?
Answer: 1.37

Question: How did the “relative CpG methylation activity” value turn out when TCACGCGG was run?
Answer: 0.996

Question: Which “relative CpG methylation activity” value does the source give for GTTCGCTC here?
Answer: 1.05

Question: With TAACGTCT as the sequence, how does the “relative CpG methylation activity” value read?
Answer: 1.15

Question: How did the “relative CpG methylation activity” value turn out when CCTCGTGT was run?
Answer: 0.0862

Question: Which “relative CpG methylation activity” value does the source give for GGACGCGT here?
Answer: 1.09

Question: Which “relative CpG methylation activity” value does the source give for GACCGCTT here?
Answer: 0.497

Question: With GTACGGAC as the sequence, how does the “relative CpG methylation activity” value read?
Answer: 1.51

Question: Which “relative CpG methylation activity” value does the source give for CGCCGATG here?
Answer: 0.876

Question: How did the “relative CpG methylation activity” value turn out when GGACGCGC was run?
Answer: 1.08

Question: With CTTCGTGT as the sequence, how does the “relative CpG methylation activity” value read?
Answer: 0.534

Question: Which “relative CpG methylation activity” value does the source give for TGGCGATT here?
Answer: 1.03

Question: Which “relative CpG methylation activity” value does the source give for AACCGCGC here?
Answer: 0.323

Question: Which “relative CpG methylation activity” value does the source give for AGACGACC here?
Answer: 1.36

Question: For GTGCGTCC, which “relative CpG methylation activity” value is on record?
Answer: 1

Question: How did the “relative CpG methylation activity” value turn out when CGGCGATA was run?
Answer: 0.906

Question: With GTTCGTCT as the sequence, how does the “relative CpG methylation activity” value read?
Answer: 0.748

Question: GATCGGAC was tested. Which “relative CpG methylation activity” value did it give?
Answer: 0.703

Question: Which “relative CpG methylation activity” value does the source give for GATCGTGT here?
Answer: 0.224

Question: With ACACGCGG as the sequence, how does the “relative CpG methylation activity” value read?
Answer: 1.1

Question: With ATGCGGAA as the sequence, how does the “relative CpG methylation activity” value read?
Answer: 0.874

Question: For CTCCGTTG, which “relative CpG methylation activity” value is on record?
Answer: 0.425

Question: Which “relative CpG methylation activity” value does the source give for CCGCGAAA here?
Answer: 0.93

Question: AGCCGTGC was tested. Which “relative CpG methylation activity” value did it give?
Answer: 0.123

Question: TAGCGAGT was tested. Which “relative CpG methylation activity” value did it give?
Answer: 1.07

Question: AATCGCAA was tested. Which “relative CpG methylation activity” value did it give?
Answer: 0.359

Question: CTTCGGGG was tested. Which “relative CpG methylation activity” value did it give?
Answer: 1.54

Question: For CAGCGAAA, which “relative CpG methylation activity” value is on record?
Answer: 0.939

Question: For AGGCGGTA, which “relative CpG methylation activity” value is on record?
Answer: 0.481

Question: For AGACGCGC, which “relative CpG methylation activity” value is on record?
Answer: 1.2

Question: Which “relative CpG methylation activity” value does the source give for TTGCGAAG here?
Answer: 0.966

Question: How did the “relative CpG methylation activity” value turn out when GTCCGCTA was run?
Answer: 0.847

Question: How did the “relative CpG methylation activity” value turn out when CAACGCTG was run?
Answer: 1.28

Question: Which “relative CpG methylation activity” value does the source give for CCGCGGCC here?
Answer: 1.3

Question: Which “relative CpG methylation activity” value does the source give for ATCCGGTC here?
Answer: 1.28

Question: With GACCGTGC as the sequence, how does the “relative CpG methylation activity” value read?
Answer: 0.31

Question: Which “relative CpG methylation activity” value does the source give for ACTCGTAT here?
Answer: 0.275

Question: Which “relative CpG methylation activity” value does the source give for TTCCGCCC here?
Answer: 1.35

Reference: the supplement of paper PMC7335073
